# Measurements published in article PMC4336329 (PLoS ONE, 2015).
# Out of some 310,000 compounds screened, about 2,200 (0.71%) showed an effect of 50% or more. Effects have a minus sign here. The list shows a part of the results.
# Biological target: human ether-à-go-go-related gene (hERG) potassium channel (human, UniProt Q12809)
# Test: primary screen, population patch clamp on CHO cells stably expressing hERG
# Chain of human ether-à-go-go-related gene (hERG) potassium channel (Q12809 whole entry, looked up): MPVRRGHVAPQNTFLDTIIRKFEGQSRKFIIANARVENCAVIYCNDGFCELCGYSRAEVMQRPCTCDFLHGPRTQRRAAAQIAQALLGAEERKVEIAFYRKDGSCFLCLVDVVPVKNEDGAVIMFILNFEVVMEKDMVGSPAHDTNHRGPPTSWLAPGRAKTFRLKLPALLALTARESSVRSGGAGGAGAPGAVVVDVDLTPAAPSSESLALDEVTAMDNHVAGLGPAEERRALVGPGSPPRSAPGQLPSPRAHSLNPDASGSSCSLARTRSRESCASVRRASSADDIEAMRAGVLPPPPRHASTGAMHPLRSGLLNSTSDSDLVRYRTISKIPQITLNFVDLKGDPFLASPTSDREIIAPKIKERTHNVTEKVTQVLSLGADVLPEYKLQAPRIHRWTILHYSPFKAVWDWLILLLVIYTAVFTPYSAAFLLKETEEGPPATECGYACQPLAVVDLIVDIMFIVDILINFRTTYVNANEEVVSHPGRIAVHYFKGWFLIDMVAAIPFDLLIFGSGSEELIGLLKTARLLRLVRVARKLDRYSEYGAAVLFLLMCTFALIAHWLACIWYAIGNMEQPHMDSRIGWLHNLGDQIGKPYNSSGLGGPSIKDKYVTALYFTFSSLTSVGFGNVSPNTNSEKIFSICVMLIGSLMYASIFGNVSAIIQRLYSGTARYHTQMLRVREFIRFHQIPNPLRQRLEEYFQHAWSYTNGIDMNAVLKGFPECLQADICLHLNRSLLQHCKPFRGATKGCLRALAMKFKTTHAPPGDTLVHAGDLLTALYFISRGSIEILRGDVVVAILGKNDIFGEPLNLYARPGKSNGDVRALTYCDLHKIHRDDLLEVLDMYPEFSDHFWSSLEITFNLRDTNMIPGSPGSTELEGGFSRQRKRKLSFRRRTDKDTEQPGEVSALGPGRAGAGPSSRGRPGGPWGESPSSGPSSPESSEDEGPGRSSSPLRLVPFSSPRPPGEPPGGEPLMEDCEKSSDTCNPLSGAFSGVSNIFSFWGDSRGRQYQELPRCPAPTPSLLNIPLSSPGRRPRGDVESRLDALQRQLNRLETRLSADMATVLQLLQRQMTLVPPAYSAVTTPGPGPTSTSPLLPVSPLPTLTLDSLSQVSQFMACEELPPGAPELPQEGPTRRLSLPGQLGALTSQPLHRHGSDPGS
row,SMILES,"hERG current change (%, negative = inhibition) at 1uM [%]"
1,O=C(CCN1C(=O)c2cccc3cccc(c23)C1=O)NC1CCS(=O)(=O)C1 (stereo not shown),11.2
2,CCOc1cc(S(=O)(=O)NCCc2ccc(OC)c(OC)c2)c(OCC)cc1-n1cnnn1,9.11
3,O=Cc1ccc(Oc2ccc(F)cc2)nc1,6.3
4,Cc1ccc2nc(-c3ccc(NC(=O)CN4C(=O)c5ccccc5C4=O)cc3)sc2c1,9.43
5,O=C(c1ccccc1F)N1CCN(c2ccc([N+](=O)[O-])c3cccnc23)CC1,-13.2
6,CCOC(=O)c1c(NC(=O)CSc2nnc(-c3cccnc3)o2)sc(C(C)=O)c1C,-3.71
7,Cc1[nH]nc2c1C(c1ccc(F)cc1)C(C#N)=C(N)O2 (stereo not shown),-1.76
8,O=C(CSc1nnc(Cc2ccccc2)n1Cc1ccco1)NC1CCCC1,4.68
9,COc1ccc(S(=O)(=O)NCc2nc3nc(C)cc(C)n3n2)cc1OC,10.1
10,S=c1nc[nH]c2c1ncn2C1CCCC1,12.8
11,C=CCc1cccc(C2Nc3ccccc3C(=O)N2O)c1O (stereo not shown),1.9
12,C=CCNCCOc1cccc(Br)c1,8.96
13,CCC(=O)N(Cc1cc2cc(OC)ccc2[nH]c1=O)c1cccc(C)c1,-2.81
14,O=[N+]([O-])c1cccc(-n2nnnc2CN2CCCCCC2)c1,4.67
15,Cc1nn(Cc2ccccc2)c2c1C(c1cccc(Cl)c1)C(C#N)=C(N)O2 (stereo not shown),4.75
16,COc1ccccc1NC(=O)Nc1sccc1-c1nc2ccccc2s1,18.2
17,c1ccc(-c2csc3ncnc(N4CCOCC4)c23)cc1,4.81
18,COc1ccc(/C=C/C(=O)NCc2c(C)nn(C)c2C)cc1COc1ccc(Br)cc1,2.25
19,CCOc1cc(/C=C2\SC(=Nc3ccc(CC)cc3)NC2=O)ccc1OCC(=O)O,14.9
20,O=C(Nc1nc2cc3c(cc2s1)OCCO3)c1cccs1,7.82

row,SMILES,"hERG current change (%, negative = inhibition) at 1uM [%]"
1,O=C(NCNC(=O)c1ccccc1)c1ccccc1,16.5
2,CCOc1ccc(S(=O)(=O)Nc2ccccc2C(=O)Nc2ccccc2N2CCOCC2)cc1,-0.389
3,CC(C)CC(=O)Nc1nnc(SCC(=O)Nc2nccs2)s1,10
4,CCOC(=O)c1[nH]cnc1C(=O)NC(C)C,6.42
5,C[n+]1c2ccccc2nc2ccc(NCCO)cc21.[O-][Cl+3]([O-])([O-])[O-],17.2
6,Cn1c(Cn2c(=O)sc3ccccc32)nnc1SCC(=O)NCc1ccccc1Cl,-3.13
7,C[C@@H](C(=O)NCc1ccccn1)[C@H]1C[C@]1(C)[C@H](NC(=O)OCc1ccccc1)c1ccccc1,12.8
8,C/C(=N\NC(=O)Cc1ccc([N+](=O)[O-])cc1)c1cccnc1,11.1
9,Cc1ccc(C(=O)C(C)Oc2cccc(NC(=O)c3ccco3)c2)cc1 (stereo not shown),10.7
10,CC12CCC(=O)N1C(C(=O)N1CCN(S(=O)(=O)c3ccccc3F)CC1)CS2 (stereo not shown),-18.5
11,COc1ccc(NC(=O)CC2SC(N3CCOCC3)=NC2=O)cc1OC (stereo not shown),10.2
12,CCN=C1SC(C(N)=O)CC(=O)N1CC (stereo not shown),10.5
13,Cc1ccc(S(=O)(=O)N2CCC(=O)N(CCOC(=O)Nc3cc(C)cc(C)c3)CC2)cc1,-0.244
14,O=C(NCC1CCCO1)c1cccc(C(=O)NCC2CCCO2)c1 (stereo not shown),8.7
15,c1ccc(-c2cnnn2-c2ccccc2)cc1,16
16,CCN(CC)S(=O)(=O)c1cc(NC(=O)c2ccc(Br)s2)ccc1C,15.2
17,C=CCn1c(SCC(=O)Nc2cccc3ccccc23)nnc1-c1cnccn1,-4.07
18,Cc1onc(-c2ccccc2Cl)c1C(=O)NCc1nc(-c2ccccc2)no1,2.49
19,COc1ccc(NC(=O)CN2C(=O)N(C)Cc3ccccc32)c(C)c1,6.65
20,CC1(C)CC(=O)c2c(O)c(-c3ccccc3)c(=O)n(-c3ccccc3)c2C1,3.77

row,SMILES,"hERG current change (%, negative = inhibition) at 1uM [%]"
1,CP(=O)(O)CCCN.Cl,11.9
2,CN(C)CCNC(=O)/C(=C/c1ccc(-c2ccc(Cl)cc2)o1)NC(=O)c1ccccc1,-82
3,C=CCN(CC=C)C(=O)Nc1cc(OC)ccc1OC,9.91
4,Cc1nonc1NC(=O)CSc1cn[nH]n1,12.5
5,Cc1sc2nc(-c3cccs3)oc(=O)c2c1C,17.3
6,CCOCCCn1c(SCC(=O)NCc2ccco2)nc2c(sc3ccccc32)c1=O,3.64
7,CCOc1ccccc1NC(=O)CC1Nc2cc(C)c(C)cc2NC1=O (stereo not shown),0.117
8,Cc1ccc(SC(C)c2nc(-c3ccncc3)no2)cc1 (stereo not shown),-6.77
9,O=C(Cc1ccccc1)Nn1c(-c2ccccc2F)nc2ccccc2c1=O,11.4
10,Cc1ccccc1OCCCn1c(CO)nc2ccccc21,5
11,Cc1cc(C)c2c(=O)[nH]c(SCC(=O)c3ccc(F)c(C)c3)nc2n1,11.9
12,COc1ccc(CNC(=O)CCS(=O)(=O)Cc2ccc(C)cc2)c(OC)c1,1.49
13,C=CCn1c(C)cc(C(=O)COc2ncnc3sccc23)c1C,1.47
14,Cl.O=C(CSC1=NCCN1)NC12CC3CC(CC(C3)C1)C2,-0.0963
15,COc1cccc(NC(=O)CCN2C(=O)c3ccc([N+](=O)[O-])cc3C2=O)c1,15.8
16,COc1ccccc1C(=O)N/C(=C/c1ccc2c(c1)OCO2)C(=O)Nc1cccc(C(=O)O)c1,-4.72
17,CC1CN(C(=O)c2cccc(S(=O)(=O)NCc3ccccc3)c2)CC(C)O1 (stereo not shown),7.93
18,CC(NC(=O)Nc1ccccc1)C(c1cccs1)N1CCOCC1 (stereo not shown),7.03
